Source: the RNAGym collection of RNA variant scans (doi:10.7554/elife.90254)
The source gives no read counts; variants with many changes may rest on few reads.

B1: LINE1-mini (parent)
chain: GGCAGAGCUCAACACAGCGUGGCAAAGUGGCUGUGGCUAGACUGCC

Variants of: B1
Experiment: self-cleavage, relative activity (ratio to wild type); higher = more cleavage; in vitro, sequencing; the parent is a self-cleaving ribozyme
In the case of A14G G17U G22C U32C G33C U34C, the self-cleavage is reported as 0.03. Variant A14G G17U G30C G35U has a self-cleavage of 0.23. Work on A14G G17U U32A U43A yielded a self-cleavage of 0.04. Variant A14G G19A G33A C37U has a self-cleavage of 0.03. For A14G G19C A25U, the self-cleavage was 0.26. Work on A14G G19C C37U yielded a self-cleavage of 0.02. For A14G G19C C42A, the self-cleavage was 0.01. In the case of A14G G19C G27C, the self-cleavage is reported as 0.26. Variant A14G G19U C31U U38G has a self-cleavage of 0. A14G G19U C45U gave a self-cleavage of 0.19. A14G G19U G40C U43A gave a self-cleavage of 0.05. Variant A14G G21U A24C has a self-cleavage of 0.38. With A14G G21U G22A A24U the self-cleavage was 0.91. With A14G G22A C45A the self-cleavage was 0.26. For A14G G22A G44A, the self-cleavage was 0.12. For A14G G22U A39C, the self-cleavage was 0.14. A14G G22U U32A gave a self-cleavage of 0.07. For A14G G27A G36A, the self-cleavage was 0.05. A14G G27C G30A showed a self-cleavage of 0.47. With A14G G27U G29C C42G the self-cleavage was 0.03. A14G G27U G44C gave a self-cleavage of 0.12. In the case of A14G G27U G44U, the self-cleavage is reported as 0. Work on A14G G27U U32C U34A G35U G36C C46A yielded a self-cleavage of 0.13. For A14G G29C C42G, the self-cleavage was 0.03. Work on A14G G29C U43A yielded a self-cleavage of 0.01. In the case of A14G G29U C31A, the self-cleavage is reported as 0.03. Work on A14G G30A A41C yielded a self-cleavage of 0.03. With A14G G30A C37G C45A the self-cleavage was 0.02. A14G G30A G33A gave a self-cleavage of 0.05. A14G G30C C37A C45A showed a self-cleavage of 0. Variant A14G G30C G35U has a self-cleavage of 0.02. With A14G G30C G36A G44A the self-cleavage was 0.01. Work on A14G G30U C31A C45U yielded a self-cleavage of 0.01. Variant A14G G30U G35A has a self-cleavage of 0.08. Work on A14G G30U U38G G40U yielded a self-cleavage of 0.09. A14G G33A C37A gave a self-cleavage of 0.04. Work on A14G G33C G35A yielded a self-cleavage of 0.03. With A14G G35A A39U the self-cleavage was 0.02. A14G G35A C46U showed a self-cleavage of 0.08. In the case of A14G G35C C45G, the self-cleavage is reported as 0.7. With A14G G35C U38A the self-cleavage was 0.01. Variant A14G G35U A39G has a self-cleavage of 0.15. Work on A14G G35U C42A C45G yielded a self-cleavage of 0.01. In the case of A14G G36A G40A C42G, the self-cleavage is reported as 0.14. Work on A14G G36U C42U yielded a self-cleavage of 0. A14G G40U C45A gave a self-cleavage of 0.05. Work on A14G U20A G27U yielded a self-cleavage of 0.82. A14G U20A G36U gave a self-cleavage of 0.01. A14G U20A U28G C42G showed a self-cleavage of 0.03. A14G U20C C42G gave a self-cleavage of 0.03. Variant A14G U20C G30U C42G has a self-cleavage of 0.03. In the case of A14G U20C G35U, the self-cleavage is reported as 0.06. A14G U20G C31U showed a self-cleavage of 0.02. A14G U20G G22C A24U showed a self-cleavage of 0.09. With A14G U20G U28C G44A the self-cleavage was 0.07. In the case of A14G U28A C45G, the self-cleavage is reported as 0.2. Work on A14G U28A G33C C46U yielded a self-cleavage of 0.01. A14G U28C C31U gave a self-cleavage of 0.03. A14G U28C C45G C46U showed a self-cleavage of 0.03. Work on A14G U28C G36A yielded a self-cleavage of 0.27. A14G U28G G33C showed a self-cleavage of 0.03. A14G U28G G44U C46U gave a self-cleavage of 0.02. Variant A14G U32C C37U C45U has a self-cleavage of 0.01. In the case of A14G U32C G33U, the self-cleavage is reported as 0.01. In the case of A14G U32G A41C U43A, the self-cleavage is reported as 0.05. Variant A14G U34G G40U C45U has a self-cleavage of 0. A14G U38C A39G gave a self-cleavage of 0. Variant A14G U43G C46U has a self-cleavage of 0.45. In the case of A14U A16C A26G C31G, the self-cleavage is reported as 0.06. With A14U A16C A26G G27U the self-cleavage was 0. Work on A14U A16C G29A C45U yielded a self-cleavage of 0.26. A14U A16U G22A gave a self-cleavage of 0.03. With A14U A16U U28A G29U U32C the self-cleavage was 0.04. For A14U A24C C42G, the self-cleavage was 0.05. In the case of A14U A24C C46G, the self-cleavage is reported as 0.03. A14U A24C G35A gave a self-cleavage of 0.22. In the case of A14U A24G A26U C31G, the self-cleavage is reported as 0.05. A14U A24G G40U C45A C46U showed a self-cleavage of 0.05. With A14U A24G U28A the self-cleavage was 0.05. In the case of A14U A24U G29U, the self-cleavage is reported as 0.28. With A14U A24U G33C C45U the self-cleavage was 0.01. In the case of A14U A25C A26C G36C, the self-cleavage is reported as 0.15. A14U A25C G35A showed a self-cleavage of 0.03. In the case of A14U A25G A39C G44A, the self-cleavage is reported as 0.01. A14U A25U C31U U43A gave a self-cleavage of 0.02. With A14U A25U G40C the self-cleavage was 0.04. A14U A26G G29C G30C G33U gave a self-cleavage of 0.02. Variant A14U A26U C37A has a self-cleavage of 0.13. Variant A14U A26U G40U has a self-cleavage of 0.09. Variant A14U A26U U28A G29C G40A has a self-cleavage of 0.03. With A14U A39C G44U C45U C46U the self-cleavage was 0. A14U A41C C46U gave a self-cleavage of 0.04. In the case of A14U C15A C18U U28C G33U A41G, the self-cleavage is reported as 0.03. For A14U C15A C23U, the self-cleavage was 0.03. Work on A14U C15A G17A G19U G27C U38A yielded a self-cleavage of 0. For A14U C15A G21A G27A G30U, the self-cleavage was 0.08. For A14U C15A G33U A39U G40U, the self-cleavage was 0.01. In the case of A14U C15A G35A C46G, the self-cleavage is reported as 0.07. For A14U C15A G40A C42G, the self-cleavage was 0.16. Work on A14U C15G A24C G29C G40A yielded a self-cleavage of 0.01. Variant A14U C15G A24U has a self-cleavage of 0.02. A14U C15G C46U showed a self-cleavage of 0.02. With A14U C15G G22U the self-cleavage was 0. For A14U C15U A25U, the self-cleavage was 0.17. A14U C15U C18U gave a self-cleavage of 0.01. With A14U C15U C18U G27A G29A G40C the self-cleavage was 0.33. In the case of A14U C15U C46A, the self-cleavage is reported as 0.17. In the case of A14U C15U G17C, the self-cleavage is reported as 0.12. A14U C18A A41U gave a self-cleavage of 0.21. Work on A14U C18A C31U yielded a self-cleavage of 0. A14U C18A G19U G36C C37U C45G gave a self-cleavage of 0.01. For A14U C18A G21U A41G, the self-cleavage was 0.03. Variant A14U C18A G21U C46A has a self-cleavage of 0.14. With A14U C18A G27A U43A the self-cleavage was 0.05. A14U C18A U20A showed a self-cleavage of 0.01. A14U C18A U28G showed a self-cleavage of 0.01. For A14U C18A U43A C45U C46A, the self-cleavage was 0.03. In the case of A14U C18G A24G A25U C42A, the self-cleavage is reported as 0.07. A14U C18G G19A gave a self-cleavage of 0.13. A14U C18G G19C C37A gave a self-cleavage of 0.1. With A14U C18G U20A U38A G44A the self-cleavage was 0.16. For A14U C18U A26U U32A G36A, the self-cleavage was 0. A14U C18U C37A showed a self-cleavage of 0.13. With A14U C18U G44A the self-cleavage was 0.08. In the case of A14U C23A C31G, the self-cleavage is reported as 0. For A14U C23A C46A, the self-cleavage was 0.23. Variant A14U C23A G27U G35U G36U A41C has a self-cleavage of 0.02. A14U C23A G44U gave a self-cleavage of 0.04. Work on A14U C23G A24G G35A yielded a self-cleavage of 0.01. Variant A14U C23G G27A U38C A39U has a self-cleavage of 0.07. With A14U C23G G33U C37U the self-cleavage was 0.02. With A14U C23G G36A C42A the self-cleavage was 0.08. A14U C23U C37A U38G U43C G44U gave a self-cleavage of 0.03. With A14U C31A C37A C46U the self-cleavage was 0.01. A14U C31A G33A A41C showed a self-cleavage of 0.02. For A14U C31U G33C U38A, the self-cleavage was 0.03. A14U C31U G35U gave a self-cleavage of 0.07. With A14U C37G A39C G44A the self-cleavage was 0.04. For A14U C37G C42A, the self-cleavage was 0.03. With A14U C42A U43A C45U the self-cleavage was 0. A14U C45G C46G gave a self-cleavage of 0.08. A14U G17A A24U A26C gave a self-cleavage of 0.45. A14U G17A G21U U28A gave a self-cleavage of 0.04. Variant A14U G17A G29C G44A has a self-cleavage of 0.04. A14U G17C A24G G27C gave a self-cleavage of 0.19. A14U G17C C31G gave a self-cleavage of 0.01. Work on A14U G17C C31G U32G G36A yielded a self-cleavage of 0. In the case of A14U G17C G35U, the self-cleavage is reported as 0.01. For A14U G17C U34C, the self-cleavage was 0.05. A14U G17U A39G G40C gave a self-cleavage of 0.06. For A14U G17U C18U G44A, the self-cleavage was 0.07. Work on A14U G17U C23U G30A yielded a self-cleavage of 0.03. Variant A14U G19A A26C C42G has a self-cleavage of 0.07. In the case of A14U G19A C45A, the self-cleavage is reported as 0.47. A14U G19A G35C G36A C37A gave a self-cleavage of 0.07. Variant A14U G19A U34A has a self-cleavage of 0.25. Variant A14U G19C A26C has a self-cleavage of 0.4. A14U G19C G27U showed a self-cleavage of 0.04. A14U G19C G33U G44U gave a self-cleavage of 0.02. A14U G19U A39G gave a self-cleavage of 0.08. A14U G19U C46A gave a self-cleavage of 0.11. Work on A14U G19U G27C U28A U43A yielded a self-cleavage of 0.03. In the case of A14U G21A A26C, the self-cleavage is reported as 0.4. Variant A14U G21A C23A C45G has a self-cleavage of 0.02. A14U G21A C37A showed a self-cleavage of 0.04. Variant A14U G21A G22U A41G C46G has a self-cleavage of 0.04. In the case of A14U G21A G27U G35U, the self-cleavage is reported as 0.11.
